# According to PMC12136788:
# Some of the results follow.
# B1: ENSG00000167528:stop:overlap|stop_codon|ENSG00000167528|stop_codon|NA|stop_codon (ssRNA)
# RNA: GGGAGUUCUACAGUCCGACGAUCCCCAGGACUUAGAGGAGAGGGACAUUCUGAGGGUCACAUAUACAGGUAAGAACCUAGAAUAGGCUUUCAGCCACUUCCUUCACAGUUCGGGACAUCAUCAUUCCAUGUUCGUUUAAUCCCCAACAGAGGAUUGAGCAUCA
# B2: chr17:69153304:69154009:-|three_prime_utr|ENSG00000154263|control|control|control (ssRNA)
# RNA: GGGAGUUCUACAGUCCGACGAUCUGGGCAAAGAAGAUGCUGCUCUCAGUAUUUCACGGUACAGAGAGAAGUCUCACAAUUUGUAGCAGGAGGAAGGGGAAAAUAUGUCAUUUCUUCAUUAUAUAUUAAAAGGAAAUUAUAAACCAACAGAGGAUUGAGCAUCA
# B3: ENSG00000070961:be:win_5951|3pUTR|ENSG00000070961|bound_else_gene|NA|bound_elsewhere_windowed (ssRNA)
# RNA: GGGAGUUCUACAGUCCGACGAUCACACCAACUCUAAUCCAUAAACGGGUCUUAUGACAUCUAUGAAGUAGUAGCAAGACAUGCUUAGUGUGUAUUUCUCUCUUUGAGACACUGUAAUUUCUACCAGAAAUUUCCAGAGCAUUACAACAGAGGAUUGAGCAUCA
# B4: chr4:55904547:55904648:+|3pUTR|ENSG00000090989|msi1|FALSE|bound_elsewhere (ssRNA)
# RNA: GGGAGUUCUACAGUCCGACGAUCAAAAUACCAAGCAACUGUUUUGAGAACCCAGACUUAAAAUUUUAUGUAUUAUUAAAUGUUAGAUAAAUGGGUAGUACCAUACUACAAAUAUUUAAAUGCAAAAUUACCAACCUAUAUAGCCAACAGAGGAUUGAGCAUCA
# B5: chr18:46811193:46811294:-|3pUTR|ENSG00000078043|unk|FALSE|unique (ssRNA)
# RNA: GGGAGUUCUACAGUCCGACGAUCUUUUUUUUCAUUUUUUUAAAAUGAUAUCUUACCUGAAACUACAAACGACAAAAGAGAAUUAGAAAUGUUUGAAUUAAAGUGAAGAAGGGUUGGGGGAGAUGGGCCUGAACCCACUUCCUGCAACAGAGGAUUGAGCAUCA
# B6: chr15:64675409:64675510:+|CDS|ENSG00000180357|msi1|total|mutant (ssRNA)
# RNA: GGGAGUUCUACAGUCCGACGAUCAACCAACAGCCCUGCAUACUCUGACAUCUCUGAUGCUGGGGAGGAUGGGGAGGGCAAGGCCGACAGUGUCAAAUCAAAGGACGCCGAACAGUUGGUUAAAGAAGGGGCUAAGAAAACUCUCAACAGAGGAUUGAGCAUCA
# B7: chr20:63933867:63933968:+|3pUTR|ENSG00000101152|msi1|FALSE|unique (ssRNA)
# RNA: GGGAGUUCUACAGUCCGACGAUCAUCAGAGUGGGCCCCUUGCCAGGUGGCUUUUCAGUUACAGAGUCCAGUGGACCAUUUUGUAGAACCAUGCAGCUCCCUGCGGAAGGUGGGGUAGGGUGGGAAAGAGGAGCAGGUCUGGAGCAACAGAGGAUUGAGCAUCA
# B8: chr16:67098774:67098826:+|CDS_3pUTR|ENSG00000067955|msi1_unk|total|mutant (ssRNA)
# RNA: GGGAGUUCUACAGUCCGACGAUCAGACCCCCGUCCUGGUUCCAAUUCCGGUGGUGGUGAUGACCUCAAACUUCGUUAAUUAACCGCACAGCAGAUGUGUGCUGCCCAUCUUUACAUACACAUUGCUUCCCGUUGGCAGAAAUACAACAGAGGAUUGAGCAUCA
# B9: chr1:167421552:167421653:+|3pUTR|ENSG00000143190|unk|total|mutant (ssRNA)
# RNA: GGGAGUUCUACAGUCCGACGAUCUUUUCUUCUAACCUUAUUCAUUAAGCCGUUCCUUGUUUUGGCCCUUCUACUCUUGGCCUCCGCUAAAAGCAGUAAAUGUGAGUGAAUUUUAUGUUGAUUAUGUCACCUGGAUCUCCUUUCCAACAGAGGAUUGAGCAUCA
# B10: chr1:24654915:24655033:+|CDS|ENSG00000133226|unk|total|mutant (ssRNA)
# RNA: GGGAGUUCUACAGUCCGACGAUCUCACGGUCACCACCAAAGAAGCCUCCCAAGAGGACAUCCAGCCCCCCUCGGAAAACUCGCCGGUUAUCUCCUUCAGCAAGUCCUCCAAGGCGAAGGCACAGGCCAUCACCUCCUGCAACUCAACAGAGGAUUGAGCAUCA
# B11: chr9:74692981:74693082:+|3pUTR|ENSG00000198963|unk|FALSE|unique (ssRNA)
# RNA: GGGAGUUCUACAGUCCGACGAUCUUUUAUAUUACUUUAGAAUGUAAUAGGUUUUUGUCCUUAUUUUAUGUCCUGUAAAUUAUUAGUUCAAUACUGUUAGCAUUCCCGGAUAAUGCACACAUGAUUUCUGAAUGUUUUCUGUAACAACAGAGGAUUGAGCAUCA
# B12: chr5:90513983:90514084:+|3pUTR|ENSG00000113356|unk|total|mutant (ssRNA)
# RNA: GGGAGUUCUACAGUCCGACGAUCAAAUACACUGAAGAUAAAGGUUAUUUCUUUUUUCCGCUUUGAAUUUGUCAUGACCAUUUCCGUCUUGCAGACCGCAGGGCAGCCCCUUGGGGCAAGGAUUUACUCUGGGAGGUACCGUUACAACAGAGGAUUGAGCAUCA
# B13: chr2:73958838:73958951:+|3pUTR|ENSG00000114956|unk|total|mutant (ssRNA)
# RNA: GGGAGUUCUACAGUCCGACGAUCCCAGCCCCUCUCAUCCCUGGAGCACUCUGCCGCUCAAGAGCUGGUUUGUUAAUUAUUGUCCGACUUUGCCAUUGUUUUCUUUUGUACCUGAAGCAUUUUGAAAAUAAAGUUUACUUAAGUCAACAGAGGAUUGAGCAUCA
# B14: ENSG00000124766:be:win_2401|3pUTR|ENSG00000124766|bound_else_gene|NA|bound_elsewhere_windowed (ssRNA)
# RNA: GGGAGUUCUACAGUCCGACGAUCCAGUCAGUGGAGGGCGAGUGGUUUCGGAAAAAAAAAAAGAAAAAAAGAAAAAAAAAGAAAAAAAAAAGAUUUUUUUCUUCUCUUAAUCGGAAUCGUGAUGGUGUUGGAUUAUUUCAAUGGCAACAGAGGAUUGAGCAUCA
# B15: ENSG00000180900:stop:overlap|stop_codon|ENSG00000180900|stop_codon|NA|stop_codon (ssRNA)
# RNA: GGGAGUUCUACAGUCCGACGAUCUGUGCAGCAGCCGCCGCCCCGUAAGGCCUGGGCGCCGUGGCCUGGGCCCUGUGCCCUCCUAGAGGAGCAGGCACCUCCCCCAGACUUGGGGUGGGGGCCCUGCCAGCUCCAGCACCACCCCAACAGAGGAUUGAGCAUCA
# B16: chr1:193014253:193014354:-|3pUTR|ENSG00000116750|unk|total|mutant (ssRNA)
# RNA: GGGAGUUCUACAGUCCGACGAUCUUAACCGGUAUAAGGAUUUUUCUUAUUAAUCUAAUAAAAUUCCUUAACCGGAAUUUCCACCGCUUAAGAGUGGUUUAUUUUAUCUGCAUCUUCUUUGGUGAUUGCAAAUCCCUUGUGAUACAACAGAGGAUUGAGCAUCA
# B17: chr1:67411267:67411372:-|3pUTR|ENSG00000142864|unk|FALSE|unique (ssRNA)
# RNA: GGGAGUUCUACAGUCCGACGAUCAACUCAUUUCCAAACAUGUACCAUGUUUUAUAAACCUCUUGAUUUCCAGCAACAUACUAUAGAAAACACCUGCUACUCAAAACACAACUUCUCAGUGUCAUCCAUUGCUGUCGUGAGAGACAACAGAGGAUUGAGCAUCA
# B18: chr7:103374401:103374592:-|CDS|ENSG00000170615|control|control|control (ssRNA)
# RNA: GGGAGUUCUACAGUCCGACGAUCCCUGCCCUAUGGGAGCUGCUGUUCCACAGCAUUCAUGAUGCAGUUUUAGGCAGCCAACUUAGAGAGGCACUUGCUGAACAGGAAGCCUCGGCUCCCCCUUCCCAGGAGGACUUGGAGCCCCAACAGAGGAUUGAGCAUCA
# B19: chr22:21448335:21448436:+|3pUTR|ENSG00000169635|unk|total|mutant (ssRNA)
# RNA: GGGAGUUCUACAGUCCGACGAUCGCAGUCCUGGCCCCCGGCCACUGUCUCGGGGCCCACCUCUCGCCCCUCAUCUUGGUAAUCCGCCAGCCUCAGAUACUUCUGUGGGCCCUGAAGUGGGCUCUCAAGGUCAGACCAAGGUUGCAACAGAGGAUUGAGCAUCA
# B20: chr12:25205306:25205412:-|3pUTR|ENSG00000133703|unk|total|mutant (ssRNA)
# RNA: GGGAGUUCUACAGUCCGACGAUCGUCAUAUCAAACAUUAAAAAUGACCACUCUUUUAAUUGAAAUUAACUUUUAAAUGUUUACCGGAGUAUGUGCUGUGAAGUGAUCUAAAAUUUGUAAUAUUUUUGUCAUGAACUGUACUACCAACAGAGGAUUGAGCAUCA
# B21: chr11:22846921:22847509:-|three_prime_utr|ENSG00000255359|control|control|control (ssRNA)
# RNA: GGGAGUUCUACAGUCCGACGAUCCUCCACCAUUUCGGAAAAAUAAACACAGUGCAAGUAUUUAAUAUCCAAGCUACAGGCUCUAGAAUUUUAUUAAAUGCCAUCUCUCACUACCAUAUUUUUCUUUCCUGUGGUAAACUUGAACAACAGAGGAUUGAGCAUCA
# B22: chr8:65707876:65707977:+|CDS|ENSG00000066855|unk|total|mutant (ssRNA)
# RNA: GGGAGUUCUACAGUCCGACGAUCCCUGCUGCCCUCACCGCAGAGGCUCUGAAAAAGAAAUUUGCUUAUCGGUAUCGAAGUGACCGCCAAGAUGAAGUUGAAAAAGGAAUUCCAAAGUCUGAAUCAGAGGCCACCUCAGAGAGACAACAGAGGAUUGAGCAUCA
# Molecular target: MSI1 full-length (mouse, UniProt Q61474 1-362)
# Test: nsRBNS (natural sequence RNA bind-n-seq); RBNS binding buffer (assumed for nsRBNS): 25 mM Tris pH 7.5, 150 mM KCl, 3 mM MgCl2, 0.01% Triton X-100, 500 ug/ml BSA, 20 U/ml SUPERase-In, 4 C; UNK is unkempt and MSI1 is Musashi-1; names of the RNAs are library labels; protein concentration not given here; high values mean tight binding
# UniProt Q61474, sequence (Q61474 whole entry): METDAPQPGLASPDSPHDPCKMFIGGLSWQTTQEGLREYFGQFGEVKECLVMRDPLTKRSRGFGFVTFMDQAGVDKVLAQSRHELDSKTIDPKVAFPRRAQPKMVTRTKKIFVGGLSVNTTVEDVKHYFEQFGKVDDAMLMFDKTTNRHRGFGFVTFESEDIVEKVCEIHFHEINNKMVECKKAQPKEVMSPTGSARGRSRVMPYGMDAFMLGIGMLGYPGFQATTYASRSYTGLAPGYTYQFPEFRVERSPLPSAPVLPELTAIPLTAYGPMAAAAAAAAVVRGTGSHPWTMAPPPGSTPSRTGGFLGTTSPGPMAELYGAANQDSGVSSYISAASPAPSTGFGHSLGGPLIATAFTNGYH
row,Binder,binding signal
1,B1,2.72 enrichment R
2,B2,0.516 enrichment R
3,B3,0.756 enrichment R
4,B4,4.22 enrichment R
5,B5,0.704 enrichment R
6,B6,0.416 enrichment R
7,B7,0.648 enrichment R
8,B8,0.617 enrichment R
9,B9,0.517 enrichment R
10,B10,0.541 enrichment R
11,B11,2.02 enrichment R
12,B12,0.317 enrichment R
13,B13,0.566 enrichment R
14,B14,0.561 enrichment R
15,B15,0.448 enrichment R
16,B16,0.327 enrichment R
17,B17,1.02 enrichment R
18,B18,0.468 enrichment R
19,B19,0.39 enrichment R
20,B20,0.498 enrichment R
21,B21,0.577 enrichment R
22,B22,0.312 enrichment R
